The source of these data is the supplement of paper PMC4967469.

Broadly, the IC50 is the concentration that inhibits the measured activity by half.

By IC50 is meant the dose at which the fit gives 50% viability; a limit (>, <) means that the fit lies beyond the doses tested. The AUC spans the tested range (256-fold, ending at the top dose) of the same fit; it is 1 without any effect and falls as sensitivity rises. Where the top dose is marked as inferred, it was derived from the fitted curves, not read from the paper.

Compound in this assay: Cn1cc(C2=C(c3cn(C4CCN(Cc5ccccn5)CC4)c4ccccc34)C(=O)NC2=O)c2ccccc21 [LY317615]
The experiment in a line: Viability of human cancer cell lines after 72 h of drug (GDSC screen). The settings on record: top dose inferred. The procedure: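 Human cancer cell lines in 384-well plates, medium with 10% serum, drug for 72 h over a 256-fold dose range (nine 2-fold or five 4-fold steps up to the top dose). Adherent lines were fixed and stained with the nucleic acid dye Syto60, suspension lines read with resazurin; signal relative to control wells, capped at 0 and 100%. One two-parameter sigmoid per drug and line, fitted in a mixed model over all curves with the slope shared within a line.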
For the cell line “PANC-04-03 (pancreas, adherent, top dose 20 µM)”, the AUC turned out to be 0.564 and the IC50 was 2.07 µM.
The like results for “NB14 (neuroblastoma, adherent, top dose 20 µM)” were, in that order, 0.973 and above 20 µM.
For “SCC90 (head and neck, adherent, top dose 20 µM)”, in that order: 0.886 and above 20 µM.
The like results for “LCLC-103H (large cell lung carcinoma, adherent, top dose 20 µM)” were, in that order, 0.958 and above 20 µM.
Turning to “LOUCY (T-cell lymphoblastic leukaemia, suspension, top dose 20 µM)”, the AUC worked out at 0.467 and the IC50 is 1.03 µM.
The like results for “GDM-1 (acute myeloid leukaemia, suspension, top dose 20 µM)” were, in that order, 0.738 and 5.76 µM.
The like results for “G-292 Clone A141B1 (osteosarcoma, adherent, top dose 20 µM)” were, in that order, 0.761 and 11.7 µM.
For “NCI-H64 (small cell lung carcinoma, suspension, top dose 20 µM)”, in that order: 0.931 and 18.3 µM.
For the cell line “NB13 (neuroblastoma, adherent, top dose 20 µM)”, the AUC stood at 0.87 and the half-inhibitory concentration (IC50) turned out to be 15.1 µM.
The like results for “BEN (non-small cell lung carcinoma, adherent, top dose 20 µM)” were, in that order, 0.984 and above 20 µM.
For “A3-KAW (B-cell lymphoma, suspension, top dose 20 µM)”, in that order: 0.764 and 5.91 µM.
For “RXF393 (kidney, adherent, top dose 20 µM)”, in that order: 0.638 and 3.5 µM.
Take “CaR-1 (large intestine, adherent, top dose 20 µM)”: the AUC was 0.95 and the IC50 is above 20 µM.
The like results for “CTV-1 (acute myeloid leukaemia, suspension, top dose 20 µM)” were, in that order, 0.381 and 0.632 µM.
The like results for “LB373-MEL-D (melanoma, adherent, top dose 20 µM)” were, in that order, 0.989 and above 20 µM.
For “HuP-T4 (pancreas, adherent, top dose 20 µM)”, in that order: 0.473 and 1.05 µM.
Take SiHa (cervix, adherent, top dose 20 µM): the AUC came to 0.987 and the IC50 is above 20 µM.
For “NCI-H82 (small cell lung carcinoma, suspension, top dose 20 µM)”, in that order: 0.955 and above 20 µM.
For OV-7 (ovary, adherent, top dose 20 µM), in that order: 0.514 and 1.39 µM.
The like results for “NCI-H2227 (small cell lung carcinoma, semi-adherent, top dose 20 µM)” were, in that order, 0.586 and 2.22 µM.
As to “NH-12 (neuroblastoma, adherent, top dose 20 µM)”, the AUC came to 0.671 and the IC50 was 3.98 µM.
The like results for “KYSE-410 (oesophagus, adherent, top dose 20 µM)” were, in that order, 0.857 and 17.9 µM.
The like results for “SUP-B15 (lymphoblastic leukaemia, suspension, top dose 20 µM)” were, in that order, 0.419 and 0.759 µM.
Regarding “UM-UC-3 (bladder, adherent, top dose 20 µM)”, the AUC came out at 0.956 and the IC50 was above 20 µM.
For the cell line “NCI-H1793 (lung adenocarcinoma, adherent, top dose 20 µM)”, the AUC was 0.982 and the IC50 was above 20 µM.
For “ES6 (Ewing sarcoma, adherent, top dose 20 µM)”, in that order: 0.871 and above 20 µM.
Turning to “GT3TKB (stomach, adherent, top dose 20 µM)”, the AUC was found to be 0.985 and the IC50 was above 20 µM.
The like results for huH-1 (liver, adherent, top dose 20 µM) were, in that order, 0.953 and above 20 µM.
For “M059J (glioma, adherent, top dose 20 µM)”, in that order: 0.797 and 10.4 µM.
Consider “KYAE-1 (oesophagus, suspension, top dose 20 µM)”, for which the AUC came to 0.412 and the IC50 came out at 0.697 µM.
The like results for “HDLM-2 (Hodgkin lymphoma, suspension, top dose 20 µM)” were, in that order, 0.837 and 13.1 µM.
In the case of “WM35 (melanoma, adherent, top dose 20 µM)”, the AUC amounted to 0.949 and the IC50 was above 20 µM.
For “KYSE-150 (oesophagus, adherent, top dose 20 µM)”, in that order: 0.945 and above 20 µM.
For “NB(TU)1-10 (neuroblastoma, adherent, top dose 20 µM)”, in that order: 0.992 and above 20 µM.
The like results for “NCI-H211 (small cell lung carcinoma, adherent, top dose 20 µM)” were, in that order, 0.616 and 2.58 µM.
On to “LC-1-sq (lung squamous cell carcinoma, adherent, top dose 20 µM)”, for which the AUC worked out at 0.941 and the concentration for half-maximal inhibition (IC50) is above 20 µM.
For “MS751 (cervix, adherent, top dose 20 µM)”, in that order: 0.96 and above 20 µM.
On to “CAL-120 (breast, adherent, top dose 20 µM)”, for which the AUC worked out at 0.97 and the IC50 was above 20 µM.
As to “SW1710 (bladder, adherent, top dose 20 µM)”, the AUC came out at 0.86 and the IC50 was 17.6 µM.
For “BC-3 (B-cell lymphoma, suspension, top dose 20 µM)”, in that order: 0.922 and above 20 µM.
For “SU-DHL-4 (B-cell lymphoma, suspension, top dose 20 µM)”, in that order: 0.726 and 4.41 µM.
The like results for “RPMI-6666 (Hodgkin lymphoma, suspension, top dose 20 µM)” were, in that order, 0.562 and 1.92 µM.
“ESO51 (oesophagus, semi-adherent, top dose 20 µM)”: the AUC was 0.764 and the concentration for half-maximal inhibition (IC50) was 10.2 µM.
For “HT-29 (large intestine, adherent, top dose 20 µM)”, in that order: 0.6 and 2.35 µM.
Take “KYSE-50 (oesophagus, adherent, top dose 20 µM)”: the AUC came out at 0.779 and the half-inhibitory concentration (IC50) came out at 7.45 µM.
Take “ChaGo-K-1 (non-small cell lung carcinoma, adherent, top dose 20 µM)”: the AUC came out at 0.789 and the IC50 is 10.5 µM.
The like results for “LNCaP-Clone-FGC (prostate, adherent, top dose 20 µM)” were, in that order, 0.589 and 2.26 µM.
The like results for “CGTH-W-1 (thyroid, adherent, top dose 20 µM)” were, in that order, 0.901 and above 20 µM.
